# According to paper PMC7819943, “Rice protein-binding microarrays: a tool to detect cis-acting elements near promoter regions in rice”:
# The other results are listed elsewhere or left out.
# Molecular target: T1, OsWOX13 (Oryza sativa, UniProt Q5QMM3 1-267)
# T1 sequence: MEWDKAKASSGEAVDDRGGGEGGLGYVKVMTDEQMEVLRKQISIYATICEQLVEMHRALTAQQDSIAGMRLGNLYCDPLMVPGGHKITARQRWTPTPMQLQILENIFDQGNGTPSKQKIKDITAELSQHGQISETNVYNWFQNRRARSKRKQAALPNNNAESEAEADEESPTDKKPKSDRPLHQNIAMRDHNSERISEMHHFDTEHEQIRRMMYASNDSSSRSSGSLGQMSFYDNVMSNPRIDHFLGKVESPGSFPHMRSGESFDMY
# Assay: protein-binding microarray (RPBM); PBS, 2% BSA, 51.3 ng/ul salmon testes DNA, 50 uM zinc acetate, 200 nM TF, 25 C, 1 h; high values mean tight binding
# Settings: protein: recombinant; tags: N-terminal polyhistidine and DsRed monomer fusion (pET32a); label: CyDye5-dUTP incorporated in the synthesized complementary strand; 3' TTTTT single-stranded linker to array surface; dsDNA, one strand shown
# How it was run: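 Transcription factors were made in E. coli BL21-CodonPlus as N-terminal fusions to a polyhistidine tag and DsRed, then purified on Ni–NTA. After primer extension with Cy5-dUTP and blocking with 2% BSA, a custom Agilent array was exposed for 1 h at 25 °C to 200 nM protein in PBS, 2% BSA, salmon testes DNA and 50 µM zinc acetate. Washed arrays were scanned on an Axon 4000B, and the binding signal is per-feature fluorescence intensity in arbitrary units.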
row,Sequence,binding signal
1,TCCGTATGTTAACAGATTAGGTCCATATAAATAGAAAGGACGGAGTCACCTAGTGCAG,5480 fluorescence intensity (a.u.)
2,AAATCCAATTGAATAAATTATGTATGTTTAAAAGAGTAATCGGAGTCACCTAGTGCAG,5630 fluorescence intensity (a.u.)
3,AATATTGATGCTTAAATTTCTTTCGAAGATCCTATGGAAGCGGAGTCACCTAGTGCAG,3840 fluorescence intensity (a.u.)
4,ATTGATGGGTACATTGAGATGGAGCTGTTTGGACAAGTTGCGGAGTCACCTAGTGCAG,7520 fluorescence intensity (a.u.)
5,AACTTTAGACATATATAAATTTATAGACAAATATATAGTACGGAGTCACCTAGTGCAG,10200 fluorescence intensity (a.u.)
6,CTTTAATTAAAGATTCCTATCCTCTCCAATGATTCTTTGCCGGAGTCACCTAGTGCAG,31200 fluorescence intensity (a.u.)
7,ACTAATGTAATTTCAATATATTTATAATGTAAGTCCCTAACGGAGTCACCTAGTGCAG,13900 fluorescence intensity (a.u.)
8,CTCTGATTTCGTAGAGGTCCTGCATATACTTGTTGCTTGCCGGAGTCACCTAGTGCAG,5950 fluorescence intensity (a.u.)
9,TATAAATTATATGTGTAGCTGTACTAGCTAGAGTGTATCTCGGAGTCACCTAGTGCAG,8200 fluorescence intensity (a.u.)
10,CAGTTGATAATTAATTAGTGTCATAATCCAATGTTGCCGTCGGAGTCACCTAGTGCAG,45800 fluorescence intensity (a.u.)
11,CCTCGCGCGCAGATAATTATCACAACTTATGGGGAGCTTGCGGAGTCACCTAGTGCAG,3290 fluorescence intensity (a.u.)
12,ATGTGAATTATGAAAGATGATGATTTAACGTGCTTTTATTCGGAGTCACCTAGTGCAG,5500 fluorescence intensity (a.u.)
13,AGGTGATGACGTGGATAGTCTGACAGGTGGGGCACACGTGCGGAGTCACCTAGTGCAG,6570 fluorescence intensity (a.u.)
14,TGATAGACATATTTCAATCCAACTACCTATTCTTTTAATGCGGAGTCACCTAGTGCAG,4520 fluorescence intensity (a.u.)
15,GCTGTTTATTTATATTTATTTATTGTGTATTTGATATCCACGGAGTCACCTAGTGCAG,6200 fluorescence intensity (a.u.)
16,ATGACAACAACAATTATTGTTACAATTATTGCATATGGTACGGAGTCACCTAGTGCAG,7160 fluorescence intensity (a.u.)
17,CGTATTAATTCACTACCATTACAATCACTAATATACAGGCCGGAGTCACCTAGTGCAG,4030 fluorescence intensity (a.u.)
18,AACCAATCAATCTAGAATTCCACGCATATTCATTAGTTTCCGGAGTCACCTAGTGCAG,23600 fluorescence intensity (a.u.)
19,TTTAATGTTAGATTTAATAAAATTAATTTATTACTATAAACGGAGTCACCTAGTGCAG,13700 fluorescence intensity (a.u.)
20,CCAAATTGGATCCAAATTTATTTTCCACGATCCAATTTGCCGGAGTCACCTAGTGCAG,37600 fluorescence intensity (a.u.)
21,ACATCTAAATTACTCCTGGACTCCTCGTCGTCGTGAAAGGCGGAGTCACCTAGTGCAG,3160 fluorescence intensity (a.u.)

row,Sequence,binding signal
1,CTGGTTCTTGATTATTATTAGGATTAGTTTGTTCCTTTGTCGGAGTCACCTAGTGCAG,16900 fluorescence intensity (a.u.)
2,CTTAAATTTTACAATACCGTTTATATAAAGATGGTTTTACCGGAGTCACCTAGTGCAG,6810 fluorescence intensity (a.u.)
3,TAAATATGACCTAATTAAGTCTCATCATGAGCCGCTACATCGGAGTCACCTAGTGCAG,6180 fluorescence intensity (a.u.)
4,TTGACTGGTGGATTATTATTATTATGCTGGAATTTGACCACGGAGTCACCTAGTGCAG,27900 fluorescence intensity (a.u.)
5,CTTCATGATGTGATTTAAACTCTAGTTAAGATTTAGATTTCGGAGTCACCTAGTGCAG,8910 fluorescence intensity (a.u.)
6,CTGAAACTGCAACTAACTGACACGATGATGATGTAGGTGTCGGAGTCACCTAGTGCAG,14700 fluorescence intensity (a.u.)
7,ATAGTTAATGCTCAATTAATCATGAGCCAATGGCTCACCTCGGAGTCACCTAGTGCAG,17800 fluorescence intensity (a.u.)
8,TGGGTCAACTCAATCAAGACCAGTCAAACTAAGCAGAAAGCGGAGTCACCTAGTGCAG,6050 fluorescence intensity (a.u.)
9,GTCTATATTTAATATTCTAAATTAGCGTCTAAACATCCGACGGAGTCACCTAGTGCAG,7620 fluorescence intensity (a.u.)
10,TTGACAGATAATGTGATTCTTAGGGCCCCTTGTATCATTCCGGAGTCACCTAGTGCAG,18400 fluorescence intensity (a.u.)
11,CGCCTGCAAGATTGACTCTTGCATAAAAGCATGCTCTCTCCGGAGTCACCTAGTGCAG,13300 fluorescence intensity (a.u.)
12,TAGGATTTAATTTGTGCAGTTGTACGCACGTAATCCAAGTCGGAGTCACCTAGTGCAG,6900 fluorescence intensity (a.u.)
13,AATCAATTAATTCATTTAGGATCTAAACTTAGGTTACGGACGGAGTCACCTAGTGCAG,32600 fluorescence intensity (a.u.)
14,TTTTACCCCGTTTTCGCTAATTAATTCTGTATTTATGGCACGGAGTCACCTAGTGCAG,4140 fluorescence intensity (a.u.)
15,TCTTAACTAATCAAAATAGGTTAAAATAGGTACTTCGATGCGGAGTCACCTAGTGCAG,12200 fluorescence intensity (a.u.)
16,CCTGACATCTCTCAATCGGACGGTGGATACCACCTCACCGCGGAGTCACCTAGTGCAG,3620 fluorescence intensity (a.u.)
17,TGTTGTGATTGGTTGAGAAATGTGGGTATGTGAGAAAATACGGAGTCACCTAGTGCAG,15200 fluorescence intensity (a.u.)
18,CACATTAATGGCTGATCTGTTATACCCACCTACTCTGGACCGGAGTCACCTAGTGCAG,3390 fluorescence intensity (a.u.)
19,TTACACGCAATCTGTATAATTAGTTTTGTTCTTTGTCTATCGGAGTCACCTAGTGCAG,3330 fluorescence intensity (a.u.)
20,GTTGAGGGATAATAATTGGACTTTTACCTAGATGTTTCGACGGAGTCACCTAGTGCAG,6460 fluorescence intensity (a.u.)
21,TGTAATTATAATTTATTTTGTGATGAGTTGTTTTATCACTCGGAGTCACCTAGTGCAG,55800 fluorescence intensity (a.u.)
